In PubChem BioAssay AID360 (National Center for Advancing Translational Sciences (NCATS), 2006) one finds Potency data, which are given here for 89 compounds.

The whole screen tested about 48,000 compounds, of which about 550 (1.1%) were called active. Roughly 4% stayed inconclusive and do not appear here. Cut-off read from the data, not from the text of the source: active = potency below about 15 µM; inconclusive = mostly about 16 µM to 33 µM; inactive = weaker than that. The list shows a part of the results. Bounds are passed on as bounds.
Potency is the fitted concentration of half-maximal effect.

Sequence of UniProt P04062 (P04062 whole entry, looked up): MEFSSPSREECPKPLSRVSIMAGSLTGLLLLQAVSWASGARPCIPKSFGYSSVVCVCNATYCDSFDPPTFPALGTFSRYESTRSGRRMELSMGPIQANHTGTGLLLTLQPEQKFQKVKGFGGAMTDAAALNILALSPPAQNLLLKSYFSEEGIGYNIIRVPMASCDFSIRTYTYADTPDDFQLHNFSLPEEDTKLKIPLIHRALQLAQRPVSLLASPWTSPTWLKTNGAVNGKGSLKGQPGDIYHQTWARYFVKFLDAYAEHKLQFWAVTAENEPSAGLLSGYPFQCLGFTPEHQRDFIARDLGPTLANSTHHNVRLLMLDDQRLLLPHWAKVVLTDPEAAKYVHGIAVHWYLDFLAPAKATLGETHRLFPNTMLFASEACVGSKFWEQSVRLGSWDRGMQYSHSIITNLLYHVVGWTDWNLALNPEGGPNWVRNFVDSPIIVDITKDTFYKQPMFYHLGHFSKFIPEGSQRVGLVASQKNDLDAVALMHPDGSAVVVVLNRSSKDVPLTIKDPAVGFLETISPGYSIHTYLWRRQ

The assay has as its target Lysosomal acid glucosylceramidase (Homo sapiens) (UniProt P04062). In words: Glucocerebrosidase.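 Note: the screen sought inhibitors.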 Conditions: purified enzyme, resorufin glucoside fluorescence (screen aimed at inhibitors), 20 min. Put shortly:
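Normal human glucocerebrosidase (0.2 nM final) was assayed with resorufin β-D-glucopyranoside (30 uM final) in 50mM citric acid/KH2PO4, 10mM sodium taurocholate, 0.01% tween-20, pH 5.9. Compounds were titrated; fluorescence (Ex 548, Em 600) read after 20 min at RT.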
Regarding `CC(=NCc1ccc2c(c1)OCO2)c1c(O)n(C)c(=O)n(C)c1=O`, the Potency was inactive: > 76.9 µM.

Consider `CN(C)P(=NC(=S)c1cccn1C)(N(C)C)N(C)C`, for which the Potency was inactive: > 76.9 µM.

Regarding `CCOc1ccccc1-n1c(O)c(C=NCCCN(CC)CC)c(=O)[nH]c1=O`, the Potency was inactive: > 76.9 µM.

For the compound `COc1cc(OC)c(OC)cc1CNC(C)C(O)c1ccccc1` (centres undefined), the Potency was inactive: > 76.9 µM.

As to `COc1ccccc1-n1c(-c2ccoc2)nc2ccccc2c1=O`, the Potency was inactive: > 76.9 µM.

Regarding `NCCCP(=O)(O)CCc1ccccc1`, the Potency was inactive: > 76.9 µM.

Turning to `CSc1nnc(C2CCNCC2)n1C`, the Potency is inactive: > 76.9 µM.

Take `CC(C)CCn1c(N)c(C(=O)OCC2CCCO2)c2nc3ccccc3nc21` (centres undefined): the Potency is inactive: > 76.9 µM.

For `CCC(=NCCC1=CCCCC1)c1c(O)[nH]c(=O)[nH]c1=O`, the Potency is inactive: > 76.9 µM.

In the case of `NC1CCCCC1N=Cc1c(O)n(CCc2ccc(F)cc2)c(=O)[nH]c1=O` (centres undefined), the Potency was inactive: > 76.9 µM.

Turning to `COc1ccc(S(=O)(=O)NCc2ccc(C(=O)N3CCC4(CC3)OCCO4)cc2)cc1`, the Potency was inactive: > 76.9 µM.

`CCOC(=O)N(CC)c1ccc(C(O)(C(=O)OC)C(F)(F)F)cc1` (centres undefined): the Potency is inactive: > 76.9 µM.

With `CCC(=Nc1ccccc1NC(C)=O)c1c(O)n(C)c(=O)n(C)c1=O`, the Potency is inactive: > 76.9 µM.

As for `O=C(Cc1ccccc1)Oc1ccccc1N1C(=O)CCC1=O`, the Potency is inactive: > 76.9 µM.

For the compound `Cn1c(O)c(C=NC2CC3CCC2(C)C3(C)C)c(=O)[nH]c1=O` (centres undefined), the Potency is inactive: > 76.9 µM.

Regarding `COc1ccc(CCn2c(O)c(C=NCCCO)c(=O)[nH]c2=O)cc1OC`, the Potency was inactive: > 76.9 µM.

For `CCC(=NC1CC1)c1c(O)n(-c2ccc(OC)cc2)c(=O)[nH]c1=O`, the Potency is inactive: > 76.9 µM.

In the case of `CCC(=NCC1CCCO1)c1c(O)n(-c2ccc(Cl)cc2)c(=O)[nH]c1=O` (centres undefined), the Potency was inactive: > 76.9 µM.

Consider `O=P1(Nc2cccnc2)COc2ccccc2OC1`, for which the Potency is inactive: > 76.9 µM.

With `CCOC(=O)c1c(N)n(CCN2CCCCC2)c2nc3ccccc3nc12`, the Potency was inactive: > 76.9 µM.

In the case of `O=C1C2CCCN2C(c2cccnc2)N1c1nccs1` (centres undefined), the Potency was inactive: > 76.9 µM.

With `Cc1c(C(=O)N2CCC3(CC2)OCCO3)oc2ccc(S(=O)(=O)N3CCOCC3)cc12`, the Potency was inactive: > 76.9 µM.

Turning to `O=C(c1ccc(Cl)cc1)C12CN3CN(CN(C3)C1)C2`, the Potency is inactive: > 76.9 µM.

Regarding `CC(=NCC1CCCO1)c1c(O)n(Cc2ccccc2)c(=O)[nH]c1=O` (centres undefined), the Potency is inactive: > 76.9 µM.

As for `CCCCCCN=C(C)c1c(O)n(CCCC)c(=O)[nH]c1=O`, the Potency was inactive: > 76.9 µM.

Take `CC(C)(C)c1nc(N2CCN(C(=O)c3ccco3)CC2)c2nnn(Cc3ccccc3Cl)c2n1`: the Potency is inactive: > 76.9 µM.

For the compound `O=C(CCCC1=NS(=O)(=O)c2ccccc2N1)N1CCC2(CC1)OCCO2`, the Potency was inactive: > 76.9 µM.

`CN(C)C(=O)Oc1ccc(Cl)c2ccccc12`: the Potency is inactive: > 76.9 µM.

`COc1ccccc1N=C1SCCCN1C`: the Potency was inactive: > 76.9 µM.

As for `CC12CCCCC1=[N+]([O-])CN2O` (centres undefined), the Potency is inactive: > 76.9 µM.

On to `O=C1NC(=O)[C@]2(Cc3ccccc3N3CCN(c4ccccc4)CC32)C(=O)N1Cc1ccccc1` (some centres undefined), for which the Potency is inactive: > 76.9 µM.

In the case of `COc1cccc(C2=NOC(C(=O)N3CCC4(CC3)OCCO4)C2)c1` (centres undefined), the Potency is inactive: > 76.9 µM.

Take `Cc1ccc(C2N(c3cc(C)on3)C(=O)C3CCCN32)cc1` (centres undefined): the Potency was inactive: > 76.9 µM.

With `CN1C(=O)N(C)C(=O)C2(Cc3cc(N)ccc3N3CCN(c4ccccc4F)CC32)C1=O` (centres undefined), the Potency was inactive: > 76.9 µM.

`CC12CCCCC1N(O)CN2O` (centres undefined): the Potency is inactive: > 76.9 µM.

For `O=C(c1cc(S(=O)(=O)N2CCOCC2)ccc1F)N1CCC2(CC1)OCCO2`, the Potency is inactive: > 76.9 µM.

Consider `CN=C(SCc1ccccc1)c1c(O)n(C)c(=O)n(C)c1=O`, for which the Potency is inactive: > 76.9 µM.

As for `CC(=Nc1ccc2c(c1)CCC2)c1c(O)n(C)c(=O)n(C)c1=O`, the Potency is inactive: > 76.9 µM.

On to `CC(=O)Nc1cc(C(=O)N2CCC3(CC2)OCCO3)ccc1S(=O)(=O)c1ccc(C)cc1`, for which the Potency is inactive: > 76.9 µM.

As to `CCSc1nnc([C@@H](N)Cc2c[nH]c3ccccc23)o1`, the Potency entry is “inactive”.

For `CC(=O)NC1CC2CCCC(C1)N2` (centres undefined), the Potency was inactive: > 76.9 µM.

Regarding `CC12CN3C(O)C(C)(C1)CC(C)(C2)C3O` (centres undefined), the Potency was inactive: > 76.9 µM.

Regarding `C=CCn1c(O)c(C(C)=NCc2cc(OC)cc(OC)c2)c(=O)[nH]c1=O`, the Potency was inactive: > 76.9 µM.

Regarding `CC1CCC(NCCc2ccc3c(c2)OCO3)CC1` (centres undefined), the Potency is inactive: > 76.9 µM.

Regarding `O=C(Cn1cc(C(=O)c2ccccc2F)c2ccccc21)NCc1ccco1`, the Potency is inactive: > 76.9 µM.

Take `COc1ccc(CCn2c(O)c(C=NCc3ccc4c(c3)OCO4)c(=O)[nH]c2=O)cc1OC`: the Potency is inactive: > 76.9 µM.

Regarding `COc1ccc(CC2C(=O)NC(=O)NC2=O)c(OC)c1`, the Potency is inactive: > 76.9 µM.

On to `CCN1C(=O)c2ccccc2Sc2ccc(C(=O)N3CCC4(CC3)OCCO4)cc21`, for which the Potency was inactive: > 76.9 µM.

In the case of `CCOC(=O)c1c(C)n(CCOC)c2ccc(O)cc12`, the Potency was inactive: > 76.9 µM.

On to `O=c1cccc2n1CC1CC2CN(c2ncnc3c2cnn3-c2ccccc2)C1` (centres undefined), for which the Potency was inactive: > 76.9 µM.

In the case of `CCCCn1c(=O)c(C(=O)Nc2cnccn2)c(O)c2ccccc21`, the Potency was inactive: > 76.9 µM.

As for `COc1ccc(CCn2c(O)c(C=NCc3cccnc3)c(=O)[nH]c2=O)cc1OC`, the Potency is inactive: > 76.9 µM.

For `Cc1noc(C)c1C(=O)N1CCC2(CC1)OCCO2`, the Potency is inactive: > 76.9 µM.

`CN(C)CCN=Cc1c(O)n(-c2cccc(C(F)(F)F)c2)c(=O)[nH]c1=O`: the Potency is inactive: > 76.9 µM.

In the case of `Nc1ccnn1C1CCNCC1`, the Potency is inactive: > 76.9 µM.

As to `O=c1[nH]c(=O)n(Cc2ccccc2)c(O)c1C=NCCCn1ccnc1`, the Potency was inactive: > 76.9 µM.

With `Nc1ccc(N2CCN(Cc3ccccc3Cl)CC2)c(Cl)c1`, the Potency result is “inactive”.

In the case of `CCC(=O)N1c2ccc(S(=O)(=O)CCC(=O)N3CCC4(CC3)OCCO4)cc2CC1C` (centres undefined), the Potency is inactive: > 76.9 µM.

For the compound `N#Cc1ccccc1Cn1cc(C(=O)c2cccs2)c2ccccc21`, the Potency is inactive: > 76.9 µM.

Take `Cc1nc2cc(-c3cccc(F)c3)nn2c(C)c1CCC(=O)N1CCC2(CC1)OCCO2`: the Potency was inactive: > 76.9 µM.

Take `CCOC(=O)C1=C(N)Oc2cc(C)oc(=O)c2C12C(=O)N1c3c(cccc32)C(C)=CC1(C)C` (centres undefined): the Potency was inactive: > 76.9 µM.

In the case of `CP(=O)(O)CCCN`, the Potency is inactive: > 76.9 µM.

As for `CCCCn1c(O)c(C(CC)=NCCCN(C)C)c(=O)[nH]c1=O`, the Potency is inactive: > 76.9 µM.

Consider `O=C(CN1C(=O)CCSc2ccccc21)N1CCC2(CC1)OCCO2`, for which the Potency was inactive: > 76.9 µM.

Take `O=C(Cn1c2c(c(-c3ccccc3Cl)cc1=O)CCC2)N1CCC2(CC1)OCCO2`: the Potency was inactive: > 76.9 µM.

Consider `Cc1cc(OCc2nn[nH]n2)c2c3c(c(=O)oc2c1)CCCC3`, for which the Potency is inactive: > 76.9 µM.

Turning to `Cn1c(=O)cc(OCC(=O)N2CCN(Cc3ccc4c(c3)OCO4)CC2)c2ccccc21`, the Potency is inactive: > 76.9 µM.

As for `CC(C)C12CN3CCN(CC(C3)C1O)C2` (centres undefined), the Potency was inactive: > 76.9 µM.

With `c1ccc(C2=NP(N3CCOCC3)(N3CCOCC3)=NC(N3CCOCC3)=N2)cc1`, the Potency is inactive: > 76.9 µM.

With `O=C(Cn1ncc2ccccc21)N1CCC2(CC1)OCCO2`, the Potency is inactive: > 76.9 µM.

As to `CC(c1ccccc1F)n1cc(C(=O)Nc2ccc3nc[nH]c3c2)nn1` (centres undefined), the Potency result is “inactive”.

Turning to `Nc1ccccc1C(=O)OCCOc1ccccc1`, the Potency is inactive: > 76.9 µM.

Take `CC12CC(c3ccccc3O1)C(C(=O)OCc1ccccc1)C(=O)N2` (centres undefined): the Potency was inactive: > 76.9 µM.

Consider `C=CCn1c(O)c(C(CC)=Nc2cc(OC)ccc2OC)c(=O)[nH]c1=O`, for which the Potency was inactive: > 76.9 µM.

Turning to `CNCC(O)c1cccc(OC(=O)c2ccccc2C)c1` (centres undefined), the Potency is inactive: > 76.9 µM.

For the compound `COc1ccc(C2C(C(=O)N3CCC4(CC3)OCCO4)c3cc(OC)c(OC)cc3C(=O)N2C)cc1` (centres undefined), the Potency is inactive: > 76.9 µM.

Consider `CC(=Nc1ccc2c(c1)CCC2)c1c(O)n(C2CCCCC2)c(=O)[nH]c1=O`, for which the Potency was inactive: > 76.9 µM.

In the case of `C=CCn1c(O)c(C(C)=Nc2ccc(N(CC)CC)cc2)c(=O)[nH]c1=O`, the Potency is inactive: > 76.9 µM.

For `COc1cc(OC)cc(-n2nc(C(=O)N3CCC4(CC3)OCCO4)c3ccccc3c2=O)c1`, the Potency was inactive: > 76.9 µM.

As for `Cc1ccc(N2C(=O)NC(=O)C3(Cc4ccccc4N4CCN(c5ccccc5)CC43)C2=O)cc1` (centres undefined), the Potency was inactive: > 76.9 µM.

Regarding `CN1C(=O)N(C)C(=O)C2(Cc3c(ccc4ccccc34)N(C)C2)C1=O`, the Potency was inactive: > 76.9 µM.

`CCCCn1c(O)c(C(C)=NCCc2ccccc2)c(=O)[nH]c1=O`: the Potency is inactive: > 76.9 µM.

As for `CCC(=NCCN1CCOCC1)c1c(O)n(-c2ccccc2C)c(=O)[nH]c1=O`, the Potency is inactive: > 76.9 µM.

As for `Cc1cccn2c(=O)c3cc(C(=O)N4CCC5(CC4)OCCO5)n(C)c3nc12`, the Potency is inactive: > 76.9 µM.

Turning to `COC(=O)CC1=C(C(=O)OC)C2(C(=O)N(C)c3ccccc32)C(C#N)=C(N)O1` (centres undefined), the Potency is inactive: > 76.9 µM.

For `COC(=O)c1c(C)n(Cc2ccc3c(c2)OCO3)c2ccc(O)cc12`, the Potency was inactive: > 76.9 µM.

`CCOC(=O)C1=C(N)Oc2cc(C)oc(=O)c2C12C(=O)N1c3c(cc(OC)cc32)C(C)=CC1(C)C` (centres undefined): the Potency is inactive: > 76.9 µM.

In the case of `Cc1ccc2c(c1)CC1(CN2C)C(=O)NC(=O)N(C(C)C)C1=O` (centres undefined), the Potency was inactive: > 76.9 µM.

For `CCOC(=O)C1=C(C)OC(N)=C(C#N)C12C(=O)Nc1ccc(C)cc12` (centres undefined), the Potency was inactive: > 76.9 µM.
